Laboratory results: publication doi:10.1101/2022.09.29.510028 (bioRxiv, 2022)
Values joined by “and” are separate entries in the source; they are usually repeats but may differ in a detail not shown here. Identical values can stand only once.

Biological target: the molecule itself
Assay: native MS

B1: NPM1_(240) (NTD and the entire IDR, […]) (domain or fragment)
chain: not shown
B1 was tested. Which “stoichiometry N” value did it give?
Its value is 5 and 10.
